Source: the supplement of paper PMC4967469
Lines with a small IC50 respond at low doses; where the fit passes the top or lowest dose, that dose stands as a limit. The AUC spans the tested range (256-fold, ending at the top dose) of the same fit: 1 means no effect, lower means more sensitive. A top dose marked as inferred is not printed in the source and was worked back from the curve model.

What was measured:
Test in all cases: Viability of human cancer cell lines after 72 h of drug (GDSC screen)
[1] = compound: COc1ccc(COc2ccc(Cc3cnc(N)nc3N)cc2OC)cc1 [GW-2580]; details: top dose 20 µM; top dose inferred
Protocol: (§1)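 Human cancer cell lines in 384-well plates, medium with 10% serum, drug for 72 h over a 256-fold dose range (nine 2-fold or five 4-fold steps up to the top dose). Adherent lines were fixed and stained with the nucleic acid dye Syto60, suspension lines read with resazurin; signal relative to control wells, capped at 0 and 100%. One two-parameter sigmoid per drug and line, fitted in a mixed model over all curves with the slope shared within a line.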

[2] = compound: Nc1cccc2c1CN(C1CCC(=O)NC1=O)C2=O [Lenalidomide]; details: top dose 5 µM; top dose inferred
Protocol: as §1

[3] = compound: CC(C)N(CCCNC(=O)Nc1ccc(C(C)(C)C)cc1)C[C@H]1O[C@@H](n2cc(Br)c3c(N)ncnc32)[C@H](O)[C@@H]1O [SGC0946]; details: top dose 0.5 µM; top dose inferred
Protocol: as §1

[4] = compound: CCC/C=C/C=C/C(=O)O[C@H]1/C(=C/C(=O)OC)C[C@H]2C[C@H]([C@@H](C)O)OC(=O)C[C@H](O)C[C@@H]3C[C@H](OC(C)=O)C(C)(C)[C@](O)(C[C@@H]4C/C(=C/C(=O)OC)C[C@H](/C=C/C(C)(C)[C@]1(O)O2)O4)O3 [Bryostatin 1]; details: top dose 0.008 µM; top dose inferred
Protocol: as §1

| Cell Line | AUC [1] | IC50 [1] [nM] | AUC [2] | IC50 [2] [nM] | AUC [3] | IC50 [3] [nM] | AUC [4] | IC50 [4] [nM] |
| --- | --- | --- | --- | --- | --- | --- | --- | --- |
| IA-LM (large cell lung carcinoma, adherent) | 0.978 | > 20000 | 0.981 | > 5000 | 0.983 | > 500 | 0.978 | > 8 |
| SUIT-2 (pancreas, adherent) | 0.986 | > 20000 | 0.985 | > 5000 | 0.985 | > 500 | 0.974 | > 8 |
| NCI-H1304 (small cell lung carcinoma, suspension) | 0.959 | > 20000 | 0.988 | > 5000 | 0.858 | 463 | 0.978 | > 8 |
| CW-2 (large intestine, adherent) | 0.989 | > 20000 | 0.989 | > 5000 | 0.988 | > 500 | 0.989 | > 8 |
| CAL-12T (non-small cell lung carcinoma, adherent) | 0.973 | > 20000 | 0.984 | > 5000 | 0.981 | > 500 | 0.932 | > 8 |
| H2595 (mesothelioma, adherent) | 0.981 | > 20000 | 0.95 | > 5000 | 0.956 | > 500 | 0.969 | > 8 |
| CAL-29 (bladder, adherent) | 0.982 | > 20000 | 0.981 | > 5000 | 0.973 | > 500 | 0.984 | > 8 |
| KYSE-450 (oesophagus, adherent) | 0.988 | > 20000 | 0.988 | > 5000 | 0.986 | > 500 | 0.988 | > 8 |
| KYSE-520 (oesophagus, adherent) | 0.945 | > 20000 | 0.944 | > 5000 | 0.978 | > 500 | 0.931 | > 8 |
| TE-8 (oesophagus, adherent) | 0.985 | > 20000 | 0.985 | > 5000 | 0.984 | > 500 | 0.943 | > 8 |
| HCC1143 (breast, adherent) | 0.98 | > 20000 | 0.976 | > 5000 | 0.966 | > 500 | 0.913 | > 8 |
| TK10 (kidney, adherent) | 0.982 | > 20000 | 0.968 | > 5000 | 0.979 | > 500 | 0.937 | > 8 |
| G-MEL (melanoma, adherent) | 0.984 | > 20000 | 0.953 | > 5000 | 0.956 | > 500 | 0.892 | > 8 |
| NCI-H1623 (lung adenocarcinoma, adherent) | 0.979 | > 20000 | 0.985 | > 5000 | 0.982 | > 500 | 0.985 | > 8 |
| H2731 (mesothelioma, adherent) | 0.899 | > 20000 | 0.979 | > 5000 | 0.958 | > 500 | 0.969 | > 8 |
| U-118-MG (glioma, adherent) | 0.971 | > 20000 | 0.982 | > 5000 | 0.984 | > 500 | 0.985 | > 8 |
| PL4 (pancreas, adherent) | 0.987 | > 20000 | 0.987 | > 5000 | 0.98 | > 500 | 0.987 | > 8 |
| 22RV1 (prostate, adherent) | 0.982 | > 20000 | 0.978 | > 5000 | 0.98 | > 500 | 0.975 | > 8 |
| UMC-11 (lung carcinoid, adherent) | 0.976 | > 20000 | 0.991 | > 5000 | 0.99 | > 500 | 0.987 | > 8 |
| NCI-H650 (lung adenocarcinoma, adherent) | 0.986 | > 20000 | 0.985 | > 5000 | 0.984 | > 500 | 0.983 | > 8 |

| Cell Line | AUC [1] | IC50 [1] [nM] | AUC [2] | IC50 [2] [nM] | AUC [3] | IC50 [3] [nM] | AUC [4] | IC50 [4] [nM] |
| --- | --- | --- | --- | --- | --- | --- | --- | --- |
| HCC-827 (lung adenocarcinoma, adherent) | 0.98 | > 20000 | 0.98 | > 5000 | 0.983 | > 500 | 0.944 | > 8 |
| RERF-LC-MS (lung adenocarcinoma, adherent) | 0.981 | > 20000 | 0.986 | > 5000 | 0.981 | > 500 | 0.809 | 4.32 |
| LNZTA3WT4 (glioma, adherent) | 0.981 | > 20000 | 0.988 | > 5000 | 0.981 | > 500 | 0.965 | > 8 |
| NCI-H3122 (lung adenocarcinoma, adherent) | 0.986 | > 20000 | 0.987 | > 5000 | 0.985 | > 500 | 0.981 | > 8 |
| NCI-H727 (lung carcinoid, adherent) | 0.973 | > 20000 | 0.975 | > 5000 | 0.973 | > 500 | 0.882 | > 8 |
| NCI-H810 (large cell lung carcinoma, adherent) | 0.983 | > 20000 | 0.987 | > 5000 | 0.984 | > 500 | 0.966 | > 8 |
| KYM-1 (rhabdomyosarcoma, adherent) | 0.976 | > 20000 | 0.976 | > 5000 | 0.991 | > 500 | 0.991 | > 8 |
| PCI-30 (head and neck, adherent) | 0.983 | > 20000 | 0.955 | > 5000 | 0.982 | > 500 | 0.977 | > 8 |
| CESS (acute myeloid leukaemia, suspension) | 0.991 | > 20000 | 0.99 | > 5000 | 0.988 | > 500 | 0.991 | > 8 |
| NCI-H1563 (lung adenocarcinoma, adherent) | 0.985 | > 20000 | 0.975 | > 5000 | 0.983 | > 500 | 0.951 | > 8 |
| NCI-H2141 (small cell lung carcinoma, suspension) | 0.916 | > 20000 | 0.991 | > 5000 | 0.99 | > 500 | 0.989 | > 8 |
| CTB-1 (B-cell lymphoma, suspension) | 0.948 | > 20000 | 0.939 | > 5000 | 0.976 | > 500 | 0.977 | > 8 |
| DOK (head and neck, adherent) | 0.971 | > 20000 | 0.854 | > 5000 | 0.96 | > 500 | 0.972 | > 8 |
| EFO-27 (ovary, adherent) | 0.975 | > 20000 | 0.967 | > 5000 | 0.978 | > 500 | 0.974 | > 8 |
| NCI-H358 (lung adenocarcinoma, adherent) | 0.972 | > 20000 | 0.984 | > 5000 | 0.982 | > 500 | 0.984 | > 8 |
| WM35 (melanoma, adherent) | 0.985 | > 20000 | 0.977 | > 5000 | 0.985 | > 500 | 0.976 | > 8 |
| HH (T-cell leukaemia, suspension) | 0.963 | > 20000 | 0.969 | > 5000 | 0.968 | > 500 | 0.976 | > 8 |
| NCI-H1435 (lung adenocarcinoma, semi-adherent) | 0.961 | > 20000 | 0.986 | > 5000 | 0.992 | > 500 | 0.953 | > 8 |
| OVTOKO (ovary, adherent) | 0.98 | > 20000 | 0.968 | > 5000 | 0.975 | > 500 | 0.967 | > 8 |
| NCI-H720 (lung carcinoid, suspension) | 0.991 | > 20000 | 0.992 | > 5000 | 0.991 | > 500 | 0.99 | > 8 |

| Cell Line | AUC [1] | IC50 [1] [nM] | AUC [2] | IC50 [2] [nM] | AUC [3] | IC50 [3] [nM] | AUC [4] | IC50 [4] [nM] |
| --- | --- | --- | --- | --- | --- | --- | --- | --- |
| CPC-N (small cell lung carcinoma, suspension) | 0.974 | > 20000 | 0.883 | > 5000 | 0.973 | > 500 | 0.985 | > 8 |
| PC-3 [JPC-3] (lung adenocarcinoma, adherent) | 0.972 | > 20000 | 0.981 | > 5000 | 0.979 | > 500 | 0.973 | > 8 |
| MDA-MB-468 (breast, adherent) | 0.966 | > 20000 | 0.988 | > 5000 | 0.978 | > 500 | 0.872 | 7.1 |
| YT (lymphoid neoplasm, suspension) | 0.981 | > 20000 | 0.97 | > 5000 | 0.992 | > 500 | 0.992 | > 8 |
| LU-135 (small cell lung carcinoma, suspension) | 0.982 | > 20000 | 0.991 | > 5000 | 0.991 | > 500 | 0.981 | > 8 |
| MOG-G-CCM (glioma, adherent) | 0.974 | > 20000 | 0.976 | > 5000 | 0.981 | > 500 | 0.97 | > 8 |
| HD-MY-Z (Hodgkin lymphoma, adherent) | 0.98 | > 20000 | 0.975 | > 5000 | 0.983 | > 500 | 0.981 | > 8 |
| NCI-H292 (lung adenocarcinoma, adherent) | 0.969 | > 20000 | 0.968 | > 5000 | 0.96 | > 500 | 0.881 | > 8 |
| Hs683 (glioma, adherent) | 0.988 | > 20000 | 0.988 | > 5000 | 0.987 | > 500 | 0.976 | > 8 |
| RPMI-2650 (head and neck, adherent) | 0.98 | > 20000 | 0.984 | > 5000 | 0.983 | > 500 | 0.983 | > 8 |
| H4 (glioma, adherent) | 0.987 | > 20000 | 0.982 | > 5000 | 0.985 | > 500 | 0.857 | 6.39 |
| HDQ-P1 (breast, adherent) | 0.983 | > 20000 | 0.984 | > 5000 | 0.979 | > 500 | 0.948 | > 8 |
| HCC-56 (large intestine, adherent) | 0.986 | > 20000 | 0.987 | > 5000 | 0.986 | > 500 | 0.983 | > 8 |
| NCI-H661 (large cell lung carcinoma, adherent) | 0.976 | > 20000 | 0.964 | > 5000 | 0.98 | > 500 | 0.982 | > 8 |
| ROS-50 (B-cell leukaemia, suspension) | 0.974 | > 20000 | 0.976 | > 5000 | 0.982 | > 500 | 0.98 | > 8 |
| CAL-51 (breast, adherent) | 0.987 | > 20000 | 0.991 | > 5000 | 0.99 | > 500 | 0.942 | > 8 |
| CCF-STTG1 (glioma, adherent) | 0.988 | > 20000 | 0.988 | > 5000 | 0.983 | > 500 | 0.987 | > 8 |
| ES-2 (ovary, adherent) | 0.987 | > 20000 | 0.988 | > 5000 | 0.99 | > 500 | 0.987 | > 8 |
| TE-15 (oesophagus, suspension) | 0.975 | > 20000 | 0.985 | > 5000 | 0.983 | > 500 | 0.947 | > 8 |
